Where a name gives a salt, the structure may show the parent alone. The full ranking holds about 1,900 compounds; the median of “cell viability of compound + 1 nM pemigatinib relative to pemigatinib-only (DMSO) wells” is about 0.95, and the lowest 2% start at about 0.22. This is one part of the list.

The record followed here is the supplement of paper PMC9588766.

This test concerns PDC-DUC18828. Kind of test: cell viability of compound + 1 nM pemigatinib relative to pemigatinib-only (DMSO) wells (fraction); PDC-DUC18828 is a patient-derived cholangiocarcinoma cell line; higher = less growth inhibition. The following applies: first compound 1 µM; pemigatinib concentration 1 nM; 72 h. As to the method:
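Selleck Bioactive library screen in the patient-derived FGFR2 fusion-positive ICC cell line PDC-DUC18828 (500 cells/well). Each compound was tested at 1 uM with 1 nM pemigatinib, in triplicate, for 72 h. Viability was read by CellTiter-Glo and normalised to plate DMSO controls. Value is the paper's averaged normalised viability.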
Take `CC(C)[C@H](O)C(=O)N[C@@H](C)C(=O)N[C@@H]1C(=O)N(C)CCc2ccccc21` + CCN1C(=O)N(c2c(F)c(OC)cc(OC)c2F)Cc2cnc3[nH]c(CN4CCOCC4)cc3c21 [pemigatinib]: the cell viability worked out at 1.04. With `Cc1[nH]nc2ccc(-c3cncc(OC[C@@H](N)Cc4ccccc4)c3)cc12` + CCN1C(=O)N(c2c(F)c(OC)cc(OC)c2F)Cc2cnc3[nH]c(CN4CCOCC4)cc3c21 [pemigatinib], the cell viability was 0.826. In the case of `CCC(=O)O[C@]1(C(=O)SCF)[C@H](C)C[C@H]2[C@@H]3C[C@H](F)C4=CC(=O)C=C[C@]4(C)[C@@]3(F)[C@@H](O)C[C@@]21C` [Fluticasone propionate] + CCN1C(=O)N(c2c(F)c(OC)cc(OC)c2F)Cc2cnc3[nH]c(CN4CCOCC4)cc3c21 [pemigatinib], the cell viability came out at 0.834. Then `Nc1ccc(/N=N/c2ccccc2)c(N)n1` [Phenazopyridine HCl] + CCN1C(=O)N(c2c(F)c(OC)cc(OC)c2F)Cc2cnc3[nH]c(CN4CCOCC4)cc3c21 [pemigatinib], with 1.03; and `Cc1cccc(C)c1OCC(=O)N[C@@H](Cc1ccccc1)[C@@H](O)C[C@H](Cc1ccccc1)NC(=O)[C@H](C(C)C)N1CCCNC1=O` [Lopinavir] + CCN1C(=O)N(c2c(F)c(OC)cc(OC)c2F)Cc2cnc3[nH]c(CN4CCOCC4)cc3c21 [pemigatinib], with 1.02; and `O=C1O[C@H]([C@@H](O)CO)C(O)=C1O` [Vitamin C] + CCN1C(=O)N(c2c(F)c(OC)cc(OC)c2F)Cc2cnc3[nH]c(CN4CCOCC4)cc3c21 [pemigatinib], with 0.918. For the compound `Clc1ccc(C(c2ccccc2Cl)C(Cl)Cl)cc1` (stereo not drawn) [Mitotane] + CCN1C(=O)N(c2c(F)c(OC)cc(OC)c2F)Cc2cnc3[nH]c(CN4CCOCC4)cc3c21 [pemigatinib], the cell viability worked out at 0.948. Regarding `O=C(O)c1ccccc1Nc1cccc(C(F)(F)F)c1` [Flufenamic acid] + CCN1C(=O)N(c2c(F)c(OC)cc(OC)c2F)Cc2cnc3[nH]c(CN4CCOCC4)cc3c21 [pemigatinib], the cell viability was determined as 0.985.

Consider `COc1cc(CCc2cc(NC(=O)c3ccc(N4CC(C)NC(C)C4)cc3)n[nH]2)cc(OC)c1` (stereo not drawn) + CCN1C(=O)N(c2c(F)c(OC)cc(OC)c2F)Cc2cnc3[nH]c(CN4CCOCC4)cc3c21 [pemigatinib], for which the cell viability was 0.875. The same measure for `Nc1ccc(C(=O)O)c(O)c1` [Sodium 4-Aminosalicylate] + CCN1C(=O)N(c2c(F)c(OC)cc(OC)c2F)Cc2cnc3[nH]c(CN4CCOCC4)cc3c21 [pemigatinib]: 0.961; for `CCCc1cc2c(N3CCN(C4=NCC(C)(C)S4)CC3)ncnc2s1` [MI-2 (Menin-MLL Inhibitor)] + CCN1C(=O)N(c2c(F)c(OC)cc(OC)c2F)Cc2cnc3[nH]c(CN4CCOCC4)cc3c21 [pemigatinib]: 0.902. On to `CNCc1ccc(C)c(NC(=O)c2ccc(Nc3nc(-c4ccccc4)c4ccccc4n3)cc2)c1` + CCN1C(=O)N(c2c(F)c(OC)cc(OC)c2F)Cc2cnc3[nH]c(CN4CCOCC4)cc3c21 [pemigatinib], for which the cell viability came out at 0.913. Then `CCCCN1CCCC[C@H]1C(=O)Nc1c(C)cccc1C` [Levobupivacaine HCl] + CCN1C(=O)N(c2c(F)c(OC)cc(OC)c2F)Cc2cnc3[nH]c(CN4CCOCC4)cc3c21 [pemigatinib], with 0.924; and `O=c1cc(N2CCOCC2)oc2c(-c3ccccc3)cccc12` + CCN1C(=O)N(c2c(F)c(OC)cc(OC)c2F)Cc2cnc3[nH]c(CN4CCOCC4)cc3c21 [pemigatinib], with 0.922; and `COc1cccc(-c2cc(F)ccc2C2Cc3nc(N)nc(C)c3C(=O)N2)n1` (stereo not drawn) + CCN1C(=O)N(c2c(F)c(OC)cc(OC)c2F)Cc2cnc3[nH]c(CN4CCOCC4)cc3c21 [pemigatinib], with 0.297.

On to `Cc1ccc(Sc2cncc3sc(C(N)=O)cc23)cc1` + CCN1C(=O)N(c2c(F)c(OC)cc(OC)c2F)Cc2cnc3[nH]c(CN4CCOCC4)cc3c21 [pemigatinib], for which the cell viability came to 0.836. The same measure for `Cc1c(C(=O)Nc2ccc(N3C[C@@H](C)O[C@@H](C)C3)nc2)cccc1-c1ccc(OC(F)(F)F)cc1` [LDE225 (NVP-LDE225,Erismodegib)] + CCN1C(=O)N(c2c(F)c(OC)cc(OC)c2F)Cc2cnc3[nH]c(CN4CCOCC4)cc3c21 [pemigatinib]: 1.01. On to `Nc1cc(C(F)(F)F)c(-c2cc(N3CCOCC3)nc(N3CCOCC3)n2)cn1` [BKM120 (NVP-BKM120, Buparlisib)] + CCN1C(=O)N(c2c(F)c(OC)cc(OC)c2F)Cc2cnc3[nH]c(CN4CCOCC4)cc3c21 [pemigatinib], for which the cell viability came to 0.546. The same measure for `Cc1cnc(NC(=O)Nc2cc(Br)c(C)cc2OC[C@@H]2CNCCO2)cn1` + CCN1C(=O)N(c2c(F)c(OC)cc(OC)c2F)Cc2cnc3[nH]c(CN4CCOCC4)cc3c21 [pemigatinib]: 0.977; for `OCC(CO)N[C@H]1C[C@](O)(CO)[C@@H](O)[C@H](O)[C@H]1O` [Voglibose] + CCN1C(=O)N(c2c(F)c(OC)cc(OC)c2F)Cc2cnc3[nH]c(CN4CCOCC4)cc3c21 [pemigatinib]: 1.03; for `COc1cc(Nc2ncc3c(n2)-c2ccc(Cl)cc2C(c2c(F)cccc2OC)=NC3)ccc1C(=O)O` [Alisertib (MLN8237)] + CCN1C(=O)N(c2c(F)c(OC)cc(OC)c2F)Cc2cnc3[nH]c(CN4CCOCC4)cc3c21 [pemigatinib]: 0.621. `CCCCC(=O)N(Cc1ccc(-c2ccccc2-c2nnn[nH]2)cc1)[C@H](C(=O)O)C(C)C` [Valsartan] + CCN1C(=O)N(c2c(F)c(OC)cc(OC)c2F)Cc2cnc3[nH]c(CN4CCOCC4)cc3c21 [pemigatinib]: the cell viability came to 0.968.

For the compound `Cc1ccc(Nc2nccc(N(C)c3ccc4c(C)n(C)nc4c3)n2)cc1S(N)(=O)=O` [Pazopanib] + CCN1C(=O)N(c2c(F)c(OC)cc(OC)c2F)Cc2cnc3[nH]c(CN4CCOCC4)cc3c21 [pemigatinib], the cell viability is 0.861. Turning to `CCc1ccc(/C=C2/SC(=S)NC2=O)cc1` + CCN1C(=O)N(c2c(F)c(OC)cc(OC)c2F)Cc2cnc3[nH]c(CN4CCOCC4)cc3c21 [pemigatinib], the cell viability was 1.01. Consider `O=C1c2c(O)ccc(O)c2C(=O)c2c(NCCNCCO)ccc(NCCNCCO)c21` [Mitoxantrone HCl] + CCN1C(=O)N(c2c(F)c(OC)cc(OC)c2F)Cc2cnc3[nH]c(CN4CCOCC4)cc3c21 [pemigatinib], for which the cell viability was found to be 0.196.

On to `O=C1c2c(O)ccc(O)c2C(=O)c2c(NCCNCCO)ccc(NCCNCCO)c21` [Mitoxantrone] + CCN1C(=O)N(c2c(F)c(OC)cc(OC)c2F)Cc2cnc3[nH]c(CN4CCOCC4)cc3c21 [pemigatinib], for which the cell viability came out at 0.241. Then `CCOC(=O)c1ccc(NC2CCCCC2)c(N)c1` [Ferrostatin-1 (Fer-1)] + CCN1C(=O)N(c2c(F)c(OC)cc(OC)c2F)Cc2cnc3[nH]c(CN4CCOCC4)cc3c21 [pemigatinib], with 1. The same measure for `CC1(C)CC[C@]2(NC(=O)C(C)(F)F)CC[C@]3(C)[C@H](C(=O)C=C4[C@@]5(C)C=C(C#N)C(=O)C(C)(C)[C@@H]5CC[C@]43C)[C@@H]2C1` [Omaveloxolone (RTA-408)] + CCN1C(=O)N(c2c(F)c(OC)cc(OC)c2F)Cc2cnc3[nH]c(CN4CCOCC4)cc3c21 [pemigatinib]: 0.042. The same measure for `CN1CCN(Cc2ccc(-c3cnc4[nH]cc(-c5ccc6[nH]ccc6c5)c4c3)cc2)CC1` + CCN1C(=O)N(c2c(F)c(OC)cc(OC)c2F)Cc2cnc3[nH]c(CN4CCOCC4)cc3c21 [pemigatinib]: 0.997; for `CCOC(=O)C1=C(C)NC(C)=C(C(=O)OC)C1c1cccc(Cl)c1Cl` (stereo not drawn) [Felodipine] + CCN1C(=O)N(c2c(F)c(OC)cc(OC)c2F)Cc2cnc3[nH]c(CN4CCOCC4)cc3c21 [pemigatinib]: 1.02; for `COC(=O)/C=C/C(=O)OC` [Dimethyl Fumarate] + CCN1C(=O)N(c2c(F)c(OC)cc(OC)c2F)Cc2cnc3[nH]c(CN4CCOCC4)cc3c21 [pemigatinib]: 0.982.

Take `CC(C)c1cc(C(C)C)c(CC(=O)NS(=O)(=O)Oc2c(C(C)C)cccc2C(C)C)c(C(C)C)c1` [Avasimibe] + CCN1C(=O)N(c2c(F)c(OC)cc(OC)c2F)Cc2cnc3[nH]c(CN4CCOCC4)cc3c21 [pemigatinib]: the cell viability came to 0.96.

`O=C(NNc1nc2cc(F)ccc2n2cccc12)c1cnccn1` + CCN1C(=O)N(c2c(F)c(OC)cc(OC)c2F)Cc2cnc3[nH]c(CN4CCOCC4)cc3c21 [pemigatinib]: the cell viability is 0.0465.

In the case of `O=C(NC(Cc1cc(=O)[nH]c2ccccc12)C(=O)O)c1ccc(Cl)cc1` (stereo not drawn) [Rebamipide] + CCN1C(=O)N(c2c(F)c(OC)cc(OC)c2F)Cc2cnc3[nH]c(CN4CCOCC4)cc3c21 [pemigatinib], the cell viability was 1.03. The same measure for `COc1ccc2[nH]cc(/C=C3\C(=O)Nc4ccc(NC(=O)CCN5CCCCC5)cc43)c2c1` + CCN1C(=O)N(c2c(F)c(OC)cc(OC)c2F)Cc2cnc3[nH]c(CN4CCOCC4)cc3c21 [pemigatinib]: 0.943. Then `Clc1cccc(CN=C2Nc3ccccc3NC23CCNCC3)c1` [Liproxstatin-1] + CCN1C(=O)N(c2c(F)c(OC)cc(OC)c2F)Cc2cnc3[nH]c(CN4CCOCC4)cc3c21 [pemigatinib], with 0.903; and `CC(CNC(=O)c1cccnc1)NC(=O)c1cccnc1` (stereo not drawn) [Nicaraven] + CCN1C(=O)N(c2c(F)c(OC)cc(OC)c2F)Cc2cnc3[nH]c(CN4CCOCC4)cc3c21 [pemigatinib], with 0.974.

In the case of `O=C(Nc1ccccc1)N1CCN(c2nc(-c3ccccc3)ns2)CC1` + CCN1C(=O)N(c2c(F)c(OC)cc(OC)c2F)Cc2cnc3[nH]c(CN4CCOCC4)cc3c21 [pemigatinib], the cell viability was 0.934.
